Test results published in PMC9724675, “POPDC1 scaffolds a complex of adenylyl cyclase 9 and the potassium channel TREK‐1 in heart” (EMBO Reports, 2022).

Biological target: T1, POPDC1-Myc (Popeye domain-containing protein 1, Myc-tagged) (mouse, UniProt Q9ES83 1-358)
T1 construct: POPDC1 (Bves), mouse; construct described in Froese et al 2012 and Schindler et al 2016b; Mouse is stated for the BiFC constructs, which were made from the previously described tagged constructs; also called Myc-tagged POPDC1; BVES; source: HEK293 or COS-7, transfected, in cells or in lysate
T1 sequence (looked up): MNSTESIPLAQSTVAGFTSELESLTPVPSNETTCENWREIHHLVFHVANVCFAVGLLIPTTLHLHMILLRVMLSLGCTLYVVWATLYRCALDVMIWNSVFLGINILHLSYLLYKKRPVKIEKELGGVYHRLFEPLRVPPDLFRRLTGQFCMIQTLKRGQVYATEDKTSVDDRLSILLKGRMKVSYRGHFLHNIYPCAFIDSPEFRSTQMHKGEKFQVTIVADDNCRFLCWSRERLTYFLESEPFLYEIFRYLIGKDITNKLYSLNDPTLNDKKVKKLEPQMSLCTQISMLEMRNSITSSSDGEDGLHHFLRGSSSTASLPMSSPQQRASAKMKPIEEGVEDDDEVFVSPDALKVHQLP
Assay: co-IP; IP-AC assay: HEK293 lysates expressing AC1 or AC8 with or without Myc-tagged POPDC1, immunoprecipitation with anti-MYC, AC activity stimulated with 100 μM calcium and 300 nM calmodulin
Settings: partners not purified

B1: nontagged AC8 (adenylyl cyclase 8) (enzyme)
chain: MELSDVRCLTGSEELYTIHPTPPAGDGRSASRPQRLLWQTAVRHITEQRFIHGHRGGSGSGSGGSGKASDPAGGGPNHHAPQLSGDSALPLYSLGPGERAHSTCGTKVFPERSGSGSASGSGGGGDLGFLHLDCAPSNSDFFLNGGYSYRGVIFPTLRNSFKSRDLERLYQRYFLGQRRKSEVVMNVLDVLTKLTLLVLHLSLASAPMDPLKGILLGFFTGIEVVICALVVVRKDTTSHTYLQYSGVVTWVAMTTQILAAGLGYGLLGDGIGYVLFTLFATYSMLPLPLTWAILAGLGTSLLQVILQVVIPRLAVISINQVVAQAVLFMCMNTAGIFISYLSDRAQRQAFLETRRCVEARLRLETENQRQERLVLSVLPRFVVLEMINDMTNVEDEHLQHQFHRIYIHRYENVSILFADVKGFTNLSTTLSAQELVRMLNELFARFDRLAHEHHCLRIKILGDCYYCVSGLPEPRQDHAHCCVEMGLSMIKTIRYVRSRTKHDVDMRIGIHSGSVLCGVLGLRKWQFDVWSWDVDIANKLESGGIPGRIHISKATLDCLNGDYNVEEGHGKERNEFLRKHNIETYLIKQPEDSLLSLPEDIVKESVSSSDRRNSGATFTEGSWSPELPFDNIVGKQNTLAALTRNSINLLPNHLAQALHVQSGPEEINKRIEHTIDLRSGDKLRREHIKPFSLMFKDSSLEHKYSQMRDEVFKSNLVCAFIVLLFITAIQSLLPSSRVMPMTIQFSILIMLHSALVLITTAEDYKCLPLILRKTCCWINETYLARNVIIFASILINFLGAILNILWCDFDKSIPLKNLTFNSSAVFTDICSYPEYFVFTGVLAMVTCAVFLRLNSVLKLAVLLIMIAIYALLTETVYAGLFLRYDNLNHSGEDFLGTKEVSLLLMAMFLLAVFYHGQQLEYTARLDFLWRVQAKEEINEMKELREHNENMLRNILPSHVARHFLEKDRDNEELYSQSYDAVGVMFASIPGFADFYSQTEMNNQGVECLRLLNEIIADFDELLGEDRFQDIEKIKTIGSTYMAVSGLSPEKQQCEDKWGHLCALADFSLALTESIQEINKHSFNNFELRIGISHGSVVAGVIGAKKPQYDIWGKTVNLASRMDSTGVSGRIQVPEETYLILKDQGFAFDYRGEIYVKGISEQEGKIKTYFLLGRVQPNPFILPPRRLPGQYSLA[sequence of about 20 residues not given]GHYNRRTLLSPSGTEPGAQAEGTDKSDLP
notes: adenylyl cyclase 8 (AC8), Ca2+/calmodulin-stimulated; the plasmid is not described; source: HEK293, transfected, in lysate
B1 was tested, and the “fold Ca2+/calmodulin-stimulated AC activity in the POPDC1 immunoprecipitate over IgG controls” value was 1.8 ± 0.2 fold.
